# In all, about 33,000 sequences were measured (“E-score (-0.5 to 0.5)”: median about -0.013, highest 2% from about 0.3 on). The list shows a part of the results.
# Target: T1, Msn1 (UniProt P22148)
# T1 sequence: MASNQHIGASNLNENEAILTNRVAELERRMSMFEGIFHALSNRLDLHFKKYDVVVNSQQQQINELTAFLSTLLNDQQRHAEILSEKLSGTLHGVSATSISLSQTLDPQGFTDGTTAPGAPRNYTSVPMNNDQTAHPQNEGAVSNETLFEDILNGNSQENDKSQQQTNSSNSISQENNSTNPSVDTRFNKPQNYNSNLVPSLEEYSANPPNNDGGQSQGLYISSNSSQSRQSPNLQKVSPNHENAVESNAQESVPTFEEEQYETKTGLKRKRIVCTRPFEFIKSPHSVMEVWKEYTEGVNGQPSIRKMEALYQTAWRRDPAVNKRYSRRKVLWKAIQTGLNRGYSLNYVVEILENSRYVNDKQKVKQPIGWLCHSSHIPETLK
# Test: PBM E-score (8-mer binding enrichment) (E-score (-0.5 to 0.5)); higher = stronger / more preferred TF binding; most listed sequences are background and not binding sites
# Details: protein concentration: 200 nM; construct: GST-full length
# Description: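 Universal 'all 10-mer' protein binding microarrays (Agilent AMADID 015681) probed with GST-tagged S. cerevisiae TFs (full-length or DBD) made by in vitro transcription/translation (PURExpress), about 100-200 nM. Bound TF was detected with fluorescent anti-GST. Each ungapped 8-mer (which stands for itself and its reverse complement) is scored by the PBM enrichment score (E-score), a modified Wilcoxon-Mann-Whitney statistic from -0.5 to +0.5, computed with the Universal PBM Analysis Suite. Scale: above 0.35 generally sequence-specific binding.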
row,Sequence,PBM E-score
1,GCCAATCA,-0.169
2,GAGGCAGC,-0.23
3,GAGTTGGA,0.0198
4,GACATCCA,0.219
5,ACAGAGAC,0.203
6,CGCTAAGC,0.175
7,AGGACTGA,0.0132
8,AGTCATTA,-0.0095
9,ACACTCGC,0.166
10,GCAGGCAA,-0.042
11,CTATCTAA,0.00202
12,CGATGCAC,-0.295
13,CAACCGCG,0.227
14,AACAAGAT,0.181
15,AGTCCAGG,-0.162
16,AGGGTTAC,-0.162
17,CGGCCCCG,-0.287
18,AAATCAAT,0.0903
19,AGAACGGG,-0.116
20,CTGAAAAA,0.0323
21,CCTTATTC,-0.086
22,ACACCGCC,-0.0808
23,ACAACGTA,0.0255
24,CACTCTAG,-0.175
25,CCCGGAGG,-0.202

row,Sequence,PBM E-score
1,GATCACAC,-0.161
2,AGGGTTTC,-0.168
3,GCTGTCAC,-0.0879
4,CGGTTCCA,-0.0949
5,ACTTAGGC,-0.0738
6,ACCCCGTC,-0.286
7,CTGCCAAC,-0.106
8,GCTCTGAC,-0.045
9,ACCACATG,-0.0942
10,CCGGAACA,0.236
11,GGCCCAAC,-0.143
12,TAAATGAA,0.253
13,AAAGTCAA,0.176
14,ACGGCCAG,-0.0582
15,AGTTAAAC,-0.0331
16,AACCATGC,-0.00545
17,CGCCTCCA,-0.233
18,ATCACTGC,0.0298
19,GTCTGTAA,0.127
20,TCACTGGA,-0.0157
21,GAACGATC,-0.00246
22,CTACCCGC,-0.167
23,CCTCCCGA,-0.207
24,CATTCTGA,0.0627
25,GGATGGAC,0.178

row,Sequence,PBM E-score
1,ACAGTTCA,0.114
2,CACCCTAA,-0.141
3,GCGCTCAA,-0.1
4,ACCTACAA,0.0435
5,GAAATTCC,-0.012
6,ATGGTAAG,-0.14
7,CTCGACTC,-0.132
8,CCCATTGC,-0.178
9,GCGGACGC,-0.0105
10,TATCAGGA,0.139
11,ACAGGTAC,0.0432
12,CAAACATC,0.169
13,AAATAGTT,0.115
14,AACGCGCC,-0.0708
15,AGACGATA,0.131
16,AATGCGGA,0.114
17,GGGCTGTA,-0.173
18,TACCGGTA,-0.197
19,ATGTGACC,0.0331
20,ATGAGAGA,0.00401
21,AACCAAGT,0.0857
22,CTGAGTCA,0.0364
23,AAGCAGGA,0.0601
24,CCATATGG,-0.0842
25,TCTGCCAA,-0.00391

row,Sequence,PBM E-score
1,GGCCTTAA,0.0617
2,CGACTGGA,-0.136
3,GGTCCCAA,-0.183
4,CATACCGA,0.0453
5,CCCCCAGC,-0.337
6,AACCGAAA,0.139
7,AAGACTTA,0.0625
8,AGTCTGCC,-0.0704
9,AGACCTGC,-0.0719
10,AATCATCT,-0.161
11,CCTGGTCA,-0.0283
12,AGATCGTG,0.00482
13,AAGGCCCA,-0.246
14,CACGCATG,0.0332
15,TTCTGCAA,-0.0673
16,ATATGCTC,0.0594
17,ATACGCAT,0.0734
18,ACCTATCA,-0.00035
19,CTATACGA,0.0459
20,CACGGCGG,-0.178
21,AAGATAAG,-0.00092
22,ACCTAGTA,-0.0332
23,AGAATGCA,0.0198
24,CGGCATGC,0.0592
25,GTTAGCTA,-0.171

row,Sequence,PBM E-score
1,GCAGACAC,0.203
2,ATCAAATG,0.0888
3,CCGGAATA,0.172
4,GTTAAGCA,0.0312
5,GCGGGGAC,0.15
6,GTGGTTAA,0.048
7,CGTCGTGC,0.117
8,AGGTATAA,0.016
9,AATGTAAA,0.129
10,ACTAGGGG,-0.266
11,TGCCTACA,-0.133
12,ACTAATCG,0.0745
13,CGCGCTAG,0.0353
14,GAGCACGA,-0.0943
15,GCCATACA,-0.0185
16,GATGATCA,-0.0438
17,TACTTCCA,-0.153
18,ATCCACAC,-0.141
19,AAGTGTCG,0.126
20,CGTCGGTC,0.105
21,CCCCTTGA,-0.266
22,TAGGTTCA,-0.127
23,ATAGGAGA,-0.321
24,GGCCGTAA,-0.244
25,AGCTAGAT,-0.0171

row,Sequence,PBM E-score
1,GATAATAC,0.157
2,AATGTAAG,0.151
3,ATACATAT,0.264
4,ACGCAGGA,-0.0513
5,CCGCGTCG,0.0483
6,AAGAGGGG,-0.28
7,GCTTTAAA,-0.0465
8,AATGGGCT,-0.182
9,TGGGGTAA,0.16
10,GCGCGGCC,-0.103
11,ACGCCCTG,-0.0492
12,CATGCGCA,0.0921
13,CCGACGCA,-0.106
14,AACCGGAA,0.0674
15,ACCCAATA,-0.0729
16,CAACACAA,0.0576
17,ATAACATG,0.0693
18,AGCGCTGC,-0.202
19,CAATCGCC,0.0521
20,AGCGATCG,-0.0251
21,AATTCAAT,0.224
22,ATCAGCAC,0.009
23,GAACATGC,-0.00705
24,AGTCGAAC,0.00072
25,ACGAAATC,0.0751

row,Sequence,PBM E-score
1,GATTTCAC,0.129
2,GGGCGTCA,-0.0945
3,GCCGCCAA,-0.201
4,CGCAAATA,0.0325
5,CCCTCACC,-0.36
6,ACAAATAC,0.328
7,ATCGGGAC,0.289
8,CGTCTCCA,0.109
9,AGGAGCTA,-0.303
10,AGTCCAGA,0.0245
11,CGGAGATA,0.143
12,ATCCCGTA,0.00661
13,AAGGGATC,-0.0129
14,CAGCACCG,-0.22
15,CCGAGTAA,0.0151
16,CTGAAGAC,-0.11
17,GACTGCAC,-0.0902
18,ACGACTTA,-0.142
19,GGTCACAC,-0.191
20,TCCTCTAA,-0.0667
21,TAGGGTGA,-0.1
22,CCAGACAA,0.258

# Reference: the supplement of paper PMC3334620
